Assay results reported in PubChem BioAssay AID2060622 (Molecular Pharmacology Branch, DTP, NCI, 2025).
For part of its entries the source gives two or more results. Only these are listed. There may be further records. Values given together are repeats (runs, samples, wells, individuals or studies). Marks such as [2022-09] give the month of the run.

Test system: 242566-281-R-J2-PDC complex spheroid viability
Test: Anticancer human tumor 242566-281-R-J2-PDC patient-derived pancreatic carcinoma cell line growth inhibition [CLK]
Details: for viability, T/C: stronger effect = lower value
Source text: A high-throughput screen of multi-cell type tumor spheroids was designed to identify active combinations of […] and targeted small molecules. Complex spheroids include a stromal component modeled by human endothelial cells (HUVEC) and fibroblasts modeled by human mesenchymal stem cells (MSCs). The concentration ranges selected for each drug and investigational agent were based upon clinically achievable concentrations if the clinical Cmax of the agent was known.
Compounds. The drugs and investigational agents: cirtuvivint (SM08502; NSC835563), CC-671 (NSC850746), vemurafenib (NSC761431), tapotoclax (NSC804041), sotorasib (NSC818433), adagrasib (NSC831453), MRTX-1133 (NSC836407), BAY2416964 (NSC825713), copanlisib (NSC816437), inavolisib (NSC800729), abemaciclib (NSC768073), osimertinib (NSC779217), entinostat (NSC756642), eltanexor (KPT-8602, NSC794443), venetoclax (NSC766270), ceralasertib (NSC777638), bortezomib (NSC756655), olaparib (NSC753686), talazoparib (NSC767125), alisertib (NSC759677), peposertib (NSC802822), gemcitabine (NSC613327), 5-fluorouracil (NSC19893), SN-38 (NSC673596), oxaliplatin (NSC266046), paclitaxel (NSC125973), and doxorubicin (NSC123127), were obtained from the National Cancer Institute (NCI) Developmental Therapeutics Program Chemical Repository. The FDA-approved anticancer drug set is available from the Developmental Therapeutics Program at https://dtp.cancer.gov/organization/dscb/obtaining/available plates.htm. […] The stock solutions were prepared in dimethyl sulfoxide (DMSO, Sigma-Aldrich, St. Louis, MO, cat. D2650), except for the platinum complexes which were prepared in saline (Quality Biological, Gaithersburg, MD, cat. 114-055-101), at 800-fold the tested concentration and stored at -70 degrees C prior to their use. All drugs and investigational agents were tested over a range starting from a high concentration at or near the clinical Cmax and decreasing in half-log increments. If the clinical Cmax for an agent had not been determined, the highest concentration tested was 10 microM.
Cell Culture. All cells were maintained in an incubator at 37 degrees C and 5% CO2 with 95% humidity. The PDC lines were cultured according to standard operating procedures established by the NCI PDMR. Briefly, all PDCs were thawed and cultured in Matrigel-coated flasks prepared with a working solution of 1X Ham's F-12 nutrient mix, without supplementation (Invitrogen, Waltham, MA, cat. 11765054), 100 U/mL penicillin-streptomycin (Invitrogen, cat. 15140122), and 2.5% Matrigel (Corning Inc., Corning, NY, cat. 354248) for the first three passages. The 947758-054-R-J2-PDC line was cultured in 6B/Colon 1A media, which includes advanced DMEM/F-12 (Thermo Fisher Scientific, cat. 12634028), 10 mM HEPES (Thermo Fisher Scientific, cat. 15630080), 1X GlutaMAX supplement (Thermo Fisher Scientific, cat. 35050061), 0.1 mg/mL primocin (InvivoGen, cat. ant-pm-2), 10% defined fetal bovine serum, heat inactivated (HyClone Laboratories Inc., cat. SH30070.03HI), 1.25 mM N-Acetyl-L-cysteine (Sigma-Aldrich, cat. A9165), 10 mM nicotinamide (Sigma-Aldrich, cat. N0636), 1X B-27 supplement (Thermo Fisher Scientific, cat. 17504044), 1X N-2 supplement (Thermo Fisher Scientific, cat. 17502048), and 10 microM Y-27632 dihydrochloride (Tocris Bioscience, cat. 1254). […]
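Note: spheroids exposed to compounds for 7 days before readout.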
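Throughout, for viability, T/C: 100% = DMSO vehicle control wells.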

Row | IC50 (compound alone) | Compound | viability, T/C (compound alone 0.0316 µM) | viability, T/C (compound alone 0.1 µM) | viability, T/C (compound alone 0.316 µM)
1 | – | CNC(=O)c1ccc(Nc2nc(OC3CCCC3)c3c(-c4ccc5nc(C)oc5c4)c[nH]c3n2)c(OC)c1 | 91.2, 89.5, 104, 87.8, 86, 79.9, 81.4, 83.5, 74.7, 96.3, 87, 103% | 88.9, 85.3, 107, 76, 88.8, 88.6, 78.1, 89.4, 85.4, 79.1, 91.8, 72% | 87.8, 82.3, 80.7, 90.9, 96.2, 97.3, 93.1, 85.1, 90.1, 71.8, 94.7, 88.9%
2 | 116 nM [2023-07] and 2.55 µM [2023-08] | C#Cc1c(F)ccc2cc(O)cc(-c3ncc4c(N5CC6CCC(C5)N6)nc(OCC56CCCN5CC(F)C6)nc4c3F)c12 (stereo not given) | – | – | –
3 | – | CN1CCN(c2cc(C(=O)Nc3cc4cc(-c5cnn(C)c5)ccc4cn3)ccn2)CC1 | – | – | 31.2, 22.4, 23.9, 34.8, 33.1, 34.2, 43.7, 34.9, 35.5, 37.6, 48.3, 38.3%
